± gives the standard deviation of the averaged measurements. The list shows a part of the results.
test system: PfAP2-EXP AP2 domain (GST-tagged); assay: gcPBM binding intensity (ln(normalized median fluorescence intensity)); higher = stronger DNA binding
In short: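 Probes on an Agilent 4 × 180k array were primer-extended, double-stranded and 36 bp long, taken from intergenic genomic regions, with negative controls added. GST-tagged P. falciparum DNA-binding domains from E. coli, about 25 μg on average, were applied to the array for 1 h in 1× PBS containing 1% milk, 0.2 mg/ml BSA, 0.5% salmon testes DNA and 0.03% Triton X-100. Binding intensity, obtained after Alexa488 anti-GST antibody detection and a 488 nm scan, is the highest Masliner-normalised natural-log median intensity across replicate spots of either probe orientation.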

Sequence | gcPBM binding intensity (ln)
ATTATTTATTTATTTTTTTTTTTTTTCTCTTTTCCT [GTGCAC_negctrl_site656] | 8.43 ± 0.52
TTTTTTTTTTCTCTCGCACACATTTTTTAAAATGAG [CACACA_site2607] | 8.67 ± 0.4
AGTAGGCATATTGGTTGTACAAAAAAATTATGCACC [XGTACX_site8925] | 8.82 ± 0.36
GACTCTTAAAAAATTTGTACCCACATAAATAATATA [XGTACX_site4313] | 8.57 ± 0.17
ATATATATATATGTTTATTTATTTGAACGATTGTGG [CACACA_negctrl_site828] | 9.95 ± 0.38
ATATTTATATAGATGTGTACATAAATATAATAACAT [XGTACX_site1681] | 8.86 ± 0.3
ACATATATATATATGTGTACATATTTATACAACAAT [XGTACX_site6660] | 8.84 ± 0.24
AAAAATAAAATATATACACACATATATATATATATA [CACACA_site2943] | 10.2 ± 0.64
TTTTAAATTGGAGTGGGCAGATTGATATTATTCTTC [GTGCAC_negctrl_site191] | 8.49 ± 0.61
TTTTTAATTTTGTGGGTGCTTTCGTGTTATTATATA | 9.04 ± 0.47
TATTATAATAAACCTATACACACATAAATAAATAAA [GTGCAC_negctrl_site627] | 8.6 ± 0.35
AATGTCAGTATGCGAGGTACACGTATAAAAATTACA [XGTACX_site4109] | 8.86 ± 0.43
AGGAAATTTGTTATTGCACACAAATTTTTCTTTTTT [CACACA_site8732] | 8.55 ± 0.25
TACATAAATTAAAACACACACACACTAGAAAAAAAA [CACACA_site5278] | 8.81 ± 0.51
TTTTACTAAATATATACACACATTATACAGATATAT [CACACA_site5765] | 8.44 ± 0.32
TATATATATATACCAACACACATACATATATATATA [CACACA_site8530] | 10.1 ± 0.13
TAAAAAATAAAAATTGCACACTAAAAAATTACGCAC [CACACA_site9129] | 8.47 ± 0.23
AAGTATAAATTAAAATGTACTTATAAAAAAAAAGAA [XGTACX_site7028] | 8.65 ± 0.44
TGTCACATAATTTATGCACACAATGATTATGCTTAA [CACACA_site2358] | 8.47 ± 0.26

Sequence | gcPBM binding intensity (ln)
CCATATTTCATTAATGAACACACAAAGAGGTATATA [CACACA_site8431] | 8.81 ± 0.51
TATGTATGTATGTATGCATGTGTAACACCTAAATAT [TGCATGCA_site361] | 9.01 ± 0.4
ACATATATTGTACATACACACCTATATAAATATCCT [CACACA_site7503] | 8.82 ± 0.38
TATAAATATTTTATTGTACACACTTTTTATGAATGA [CACACA_site3136] | 8.86 ± 0.46
TAATATTTCATTAGGTGTACACTACATAGTAGTAGA [XGTACX_site366] | 8.7 ± 0.071
GTTTGTTTGTTTGTTCGTACATATATAAAATAAAAA [XGTACX_site4731] | 8.89 ± 0.34
ATTATAACACTTATTTCATTTGTATGCCCTTTAAAA [CACACA_negctrl_site955] | 8.78 ± 0.32
TATATAACTAAAATAACACACATATATAAAAATATA [CACACA_site7416] | 8.47 ± 0.33
AGACCTATGATATATACACACATATATTTATTTATA [CACACA_site6630] | 8.52 ± 0.58
TATATATTTTTTAATTGTACACTTCAAAAACAAAAA [XGTACX_site5595] | 8.36 ± 0.36
ATAATCAACATTAGGTGTACAAAATATGTATGTTTT [XGTACX_site6696] | 8.7 ± 0.33
AAAAACTTAATATTGACACACATTTTTAAGAATAAT [CACACA_site4291] | 8.35 ± 0.3
ATTGAACACATCTATGCATGCACGGAAAAAAGTACA [TGCATGCA_site401] | 10.07 ± 0.085
AGAATAAATAAATATTGTACATATAAAATATATATA [XGTACX_site896] | 8.39 ± 0.35
TTCAAATTTCCACATACACACCTTGTAGATATATAT [CACACA_site7984] | 8.66 ± 0.49
GTAGTTATATTAAGGGTGCTTAATTAGATTAAACAA | 8.43 ± 0.042
TTTTTTAAAATATGGACACACATATATATATCTGTA [CACACA_site5535] | 8.39 ± 0.4
TATGCAATATATTATATTCTGTAAATATTATATATT [TGCATGCA_negctrl_site67] | 8.13 ± 0.33
ACCACCAGGAACAAAGCACATTAGGAAAAATAAAAC [XGTACX_negctrl_site228] | 8.82 ± 0.53

Sequence | gcPBM binding intensity (ln)
TATAAAAAATTAAAATTTTTCTTATTTTTTTTAGAT [TGCATGCA_negctrl_site125] | 8.22 ± 0.47
TACCAATAAATGAAGGTGCGTGCTTGCCTTTGCTAT | 8.54 ± 0.31
CATACATATATTATTGCACACATATAAAATACCCCC [CACACA_site9292] | 10.2 ± 0.33
TTGAATAAATTGGAATAAATATAATAAAATAAGGAA [XGTACX_negctrl_site302] | 8.62 ± 0.38
TTGTATAGTCTGATATGTACATATATATATATATAA [XGTACX_site4307] | 8.7 ± 0.2
TAGGAATTTAATAAATGTACATATACATAATATATA [XGTACX_site3672] | 8.3 ± 0.35
AAAAAATAGTGGTATGCATGTCCCTTGTATTTTCTT [TGCATGCA_site587] | 8.56 ± 0.45
TACTTTTATATGAATACACACAGGAATATAAATATG [CACACA_site7647] | 8.59 ± 0.4
TCCTTACATTTTAAAACACACAAAAATTAATTGTTA [CACACA_site2313] | 8.33 ± 0.42
TGGATACACAAAAATTAAAAAAATAAACAAACAAAT [GTGCAC_negctrl_site105] | 8.94 ± 0.47
AAAATACCCATTTTAGTACACACTTAAAAAATTATT [CACACA_site8966] | 8.23 ± 0.35
AAAAAAAAAAAATGCACACATATATTTCCATATACA [CACACA_site1471] | 8.32 ± 0.23
TTTAAAATACAGAAGGTGCATTTAACATATTTGTAT | 8.91 ± 0.26
TATATATATAAACACACACACATATATATATATATA [CACACA_site4584] | 10.1 ± 0.35
ATATATATATATATATGTACTAATTAATATTTCGAG [XGTACX_site580] | 10.2 ± 0.47
ACAAAATTTACAAAATGTACAAAATTTACAAAGTAT [XGTACX_site6463] | 8.43 ± 0.36
GTATATCATATTTCATGTACACAAAAAAATAAAAAT [XGTACX_site704] | 8.85 ± 0.37
ATATATTTGATAAGAGTGCACAAATACATACATACA [GTGCAC_site9704] | 9.425 ± 0.092
TATATATATTATATATGTACATATTATATATATATA [XGTACX_site7300] | 9.46 ± 0.17

Source: the supplement of paper PMC11417369
